# PubChem BioAssay AID1745853 (National Center for Advancing Translational Sciences (NCATS), 2022)
# Values joined by “and” are separate entries in the source; they are usually repeats but may differ in a detail not shown here. Equal values may be shown once. The list shows a part of the results. Shown are side measurements of this screen, not its main read-out; they come without a call.
# Key:
# Test in all cases: Primary Screen for Target Class Profiling of Small Molecule Inhibitors of Methyltransferases
# [1] = target: Glycine N-methyltransferase (Homo sapiens) (UniProt Q14749); details: purified enzyme, MTase-Glo SAH luminescence; measured here: GNMT inhibition; at 40 µM; stronger effect = lower value
# Procedure, shortened: (§1)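 Each enzyme was reacted with SAM and its substrate, with compounds tested once at 40 uM; SAH formed was read by MTase-Glo luminescence.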
# [2] = target: Guanidinoacetate N-methyltransferase (Homo sapiens) (UniProt Q14353); details: purified enzyme, MTase-Glo SAH luminescence; measured here: GAMT inhibition; at 40 µM; stronger effect = lower value
# Procedure, shortened: as §1
# [3] = target: Histamine N-methyltransferase (Homo sapiens) (UniProt P50135); details: purified enzyme, MTase-Glo SAH luminescence; measured here: HNMT inhibition; at 40 µM; stronger effect = lower value
# Procedure, shortened: as §1
# [4] = target: Nicotinamide N-methyltransferase (Homo sapiens) (UniProt P40261); details: purified enzyme, MTase-Glo SAH luminescence; measured here: NNMT inhibition; at 40 µM; stronger effect = lower value
# Procedure, shortened: as §1
# [5] = target: Phenylethanolamine N-methyltransferase (Homo sapiens) (UniProt P11086); details: purified enzyme, MTase-Glo SAH luminescence; measured here: PNMT inhibition; at 40 µM; stronger effect = lower value
# Procedure, shortened: as §1
# On the % scale 0 is the no-effect control and ±100 the full control effect.
Structure (SMILES),"activity change, negative = inhibition [1]","activity change, negative = inhibition [2]","activity change, negative = inhibition [3]","activity change, negative = inhibition [4]","activity change, negative = inhibition [5]"
CC(C)n1c(=O)c2ccc(C(=O)NC3CCCC3)cc2n2c(=O)n(CC(=O)c3cccc(Cl)c3)nc12,-3.06%,1.4%,2.51%,-1.5%,1.81%
Cn1cc(S(=O)(=O)NC2CC(c3cc(N4CCC(O)C4)ncn3)C2)cn1 (stereo not given),-0.43%,2.69%,2.01%,-3.52%,-18.1%
CCCS(=O)(=O)N1CCc2nn(CC3CC3)c(=O)n2CC1,0.746%,0.79%,0.222%,4.31%,5.76%
CCOc1ccc(CN2C(=O)c3c(C(=O)OC)ncn3CC2(C)C(=O)NC2CCCC2)cc1 (stereo not given),-0.011%,-0.674%,-3.62%,-0.264%,0.048%
C/C=C/CC(C)C(O)C1C(=O)NC(CC)C(=O)N(C)CC(=O)N(C)C(CC(C)C)C(=O)NC(C(C)C)C(=O)N(C)C(CC(C)C)C(=O)NC(C)C(=O)NC(C)C(=O)N(C)C(CC(C)C)C(=O)N(C)C(CC(C)C)C(=O)N(C)C(C(C)C)C(=O)N1C (stereo not given),2.74% and 10.8%,25.2% and 26.9% and 11.3%,12.5% and 14.2%,5.83% and 9.89% and -8.83%,9.58% and 4.42% and -4.59%
CCCn1c(=O)c2ccc(C(=O)NC3CCCC3)cc2n2c(=O)n(Cc3cccc(C)c3)nc12,1.14%,0%,2.39%,-1.44%,3.37%
CCc1cc2c(cc3n2CC(C)(C(=O)NC2CCC(C)CC2)N(Cc2ccccc2C)C3=O)s1 (stereo not given),3.19%,0.45%,6.88%,-4.75%,1.23%
CCN1C(=O)c2cc(C(=O)NCCCOC)nn2CC1(C)C(=O)NC1CCCC1 (stereo not given),4.51%,5.2%,-10.8%,7.51%,4.47%
CCOCCCNc1nc2c(S(=O)(=O)c3c(C)cc(C)cc3C)nnn2c2ccccc12,-8.77%,3.23%,2.79%,3.53%,-3.02%
CC1CCCCC1NC(=O)C1(C)Cn2c(cc3occc32)C(=O)N1Cc1ccc(Cl)cc1 (stereo not given),5.08%,2.31%,7.02%,3.51%,4.25%
CN1CCOc2c(C(=O)NCc3cnn(C)c3)cc(-c3ccc([S+](C)(=O)[O-])cc3)cc21,-8.16%,-3.66%,-4.43%,-12.7%,-10.2%
Cn1ccnc1,-2.35%,5.93%,2.15%,-7.47%,1.75%
COc1cccc(CN2C(=O)c3ccc(-c4ccco4)n3CC2(C)C(=O)NC2CCCC2)c1 (stereo not given),-10.1%,-13.8%,2.89%,-15.7%,-8.88%
CC(C)CCn1c(=O)c2ccc(C(=O)NC(C)C)cc2n2c(=O)n(CC(=O)Nc3ccccc3F)nc12,8.04%,0.321%,2.81%,8.59%,7.96%
Cc1ccc(N2C(=O)c3cc4occc4n3CC2(C)C(=O)NC2CCCCCCC2)c(C)c1 (stereo not given),0.401%,0%,7.33%,5.01%,2.15%
CCN(CC)CCOC(=O)c1ccc(N)cc1,9.74%,12.5%,12.4%,-3.45%,0.318%
CC1(C(=O)NC2CCCCC2)Cn2nc(-c3cccs3)cc2C(=O)N1Cc1ccc(Cl)cc1 (stereo not given),2.08%,1.01%,7.17%,11.9%,2.55%
CC1(C(=O)NC2CCCCC2)Cn2c(ccc2-c2ccco2)C(=O)N1Cc1ccc(F)cc1 (stereo not given),-2.76%,4.4%,2.89%,-3.21%,-3.38%
Cc1ncoc1C(=O)N1CCC2(CC1)CC(N(Cc1ccccc1)C1CC1)CCO2 (stereo not given),-0.926%,-1.68%,-0.443%,-3.6%,1.26%
Cc1ccc(CN2CCCc3nc(C)nc(-c4ccc(O)cc4)c3C2)cc1,-10.7%,-9.66%,-9.6%,-17.7%,-15.1%

Structure (SMILES),"activity change, negative = inhibition [1]","activity change, negative = inhibition [2]","activity change, negative = inhibition [3]","activity change, negative = inhibition [4]","activity change, negative = inhibition [5]"
CN(CC(=O)NCCc1ccccc1)S(=O)(=O)c1ccc2[nH]c3c(c2c1)CCCC3,3%,1.82%,-1.08%,-1.44%,3.95%
COc1ccc(NC(=O)CCc2ccnc(N3CCCC3)c2)c(OC)c1,-5.27%,-3.22%,-79%,-7.22%,-1.91%
O=C(NC[C@H]1Cn2ccnc2CO1)C1CCCC1,-1.44%,-3.52%,-0.667%,-0.781%,-4.36%
CCOCCCNC(=O)C1c2c(n(C)c3ccccc23)SCC(=O)N1c1ccc(Cl)cc1 (stereo not given),5.14%,0%,-0.52%,3.97%,6.51%
COC(=O)C(Cc1ccc(OCCn2c(=O)sc3cc(C(=O)c4ccccc4)ccc32)cc1)C(=O)OC,3.75%,-15.2%,8.55%,-20.7%,-9.89%
O=C1CCC[C@@H]2[C@H]3CCC[N+]4([O-])CCC[C@@H](CN12)[C@@H]34 (stereo not given in full),1.08%,,8.96%,,
O=C([C@@H]1C[C@@H]2C=C[C@H]1C2)N1CCc2c(nc(-c3cccnc3)[nH]c2=O)C1,-2.38%,1.68%,1.22%,-1.64%,-2.7%
Cc1noc(C)c1-c1nccc2c(=O)cc(-c3ccccn3)oc12,-1.81%,2.13%,-1.46%,-28.4%,-11.2%
Cc1ccc(C)c(NC(=O)N2CCn3cccc3C2C(C)C)c1 (stereo not given),11.5%,1.32%,5.8%,8.28%,8.03%
COc1ccc(S(N)(=O)=O)cc1C(=O)N1CCC2(CN(C)C(=O)O2)C1 (stereo not given),-3.98%,-5.76%,-4.15%,-9.89%,2%
CC(=O)OC[C@]12[C@H](OC(C)=O)C(=O)[C@@H]3[C@@H](OC(C)=O)[C@@]14O[C@@]3(C)COC(=O)c1cccnc1[C@@H](C)[C@H](C)C(=O)O[C@@H]([C@H](OC(C)=O)[C@@H]2OC(C)=O)[C@]4(C)O,0%,5.48%,10.6%,-8.21%,0.203%
COc1ccc(OC)c(CCNC(=O)Cn2ccc3cc(S(=O)(=O)N4CCCC4)ccc32)c1,5.81%,0%,7.71%,2.54%,6.5%
CC1(C(=O)NC2CCCCCCC2)Cn2c(cc3occc32)C(=O)N1CC1CCCO1 (stereo not given),-0.392%,0%,6.61%,-6.1%,1.52%
CCNC(=O)N[C@H]1[C@H](O)[C@H](O)C[C@@H]1c1cncnc1,-4.52%,-7.92%,-4.32%,-4.46%,4.12%
O=C(C1CCCNC1)N1CCCn2cc(-c3ccccc3F)nc21 (stereo not given),-2.51%,1.64%,-8.87%,-10.3%,-21.4%
CCCOc1nccnc1NC1CCN(C(=O)c2cccnc2)CC1,-1.88%,-4.6%,0.051%,-6.71%,-6.71%
COc1ccc2c(c1)c(NC(C)=O)c1n2CC(C)(C(=O)NC2CCCCCC2)N(CCN(C)C)C1=O (stereo not given),2.73%,0%,6.73%,11.4%,4.92%
CCOc1ccccc1CNC(=O)C(C)n1ccc2cc(S(=O)(=O)N3CCCC3)ccc21 (stereo not given),0.03%,0.785%,-2.68%,-4.93%,-0.459%
CC(C)c1nc(N2CCOCC2)ncc1C(=O)O,0.63%,-0.987%,3.11%,-0.796%,-0.288%
CCc1ccccc1N1C(=O)CSc2c(c3ccccc3n2C)C1C(=O)NCc1ccc(F)cc1 (stereo not given),-2.56%,0%,7.87%,0.986%,11.3%

Structure (SMILES),"activity change, negative = inhibition [1]","activity change, negative = inhibition [2]","activity change, negative = inhibition [3]","activity change, negative = inhibition [4]","activity change, negative = inhibition [5]"
C[C@@H](c1nc(-c2ccc(C#N)cc2)cs1)[C@](O)(Cn1cncn1)c1cc(F)ccc1F,-13%,-12.8%,-11.8%,-21.3%,-6.11%
CCCN1C(=O)c2c(C(=O)NCCc3ccc(OC)cc3OC)ncn2CC1(C)C(=O)NC1CCCC1 (stereo not given),-2.91%,0%,-1.72%,-0.128%,-0.163%
N#Cc1ccc(S(=O)(=O)N2CCc3n[nH]c(=O)n3CC2)cc1,-1.61%,1.95%,0.689%,3.16%,6.7%
CC1CCC(NC(=O)C2(C)Cn3c(ccc3-c3ccco3)C(=O)N2C2CCCCC2)CC1 (stereo not given),-2.39%,0%,1.17%,-6.02%,-2.26%
C[S+](=O)([O-])N1Cc2ccccc2CC2(CCN(CC3CCCCC3)CC2)C1,-4.92%,-3.65%,-2.98%,-10.1%,-1.91%
CCn1nc(C2CCN(C(=O)CCO)CC2)nc1-c1cnc(N)c(-c2nnc(C(C)(C)C)o2)n1,-20.7%,-3.23%,-9.85%,-22.6%,-9.85%
c1cncc(CN2CCOC[C@H]2c2ncc(-c3cccnc3)[nH]2)c1,-2.34%,-14.1%,-1.75%,-9.69%,-4.06%
CC(C)C(=O)N[C@H]1[C@H](O)[C@H](O)C[C@@H]1c1ccc(C(F)(F)F)nc1,-3.12%,-8.37%,-0.972%,-11.2%,-8.39%
Cc1cc(N2CCC(NCc3cc(C)nn3C)CC2)nc(-c2ccccc2)n1,-2%,1.64%,-2.59%,-7.36%,-1.82%
COCC(=O)N(C[C@H]1O[C@@H](CC(=O)NC2CC2)[C@H](O)[C@@H]1O)C[C@H]1O[C@@H](CC(=O)NC2CC2)[C@H](O)[C@@H]1O,-4.05%,-4.5%,-0.995%,-10.9%,-15.2%
Fc1ccc(C(c2ccc(F)cc2)N2CCNCC2)cc1,,-1.33%,,-20.1%,4.5%
COCCCNC(=O)C1(C)Cn2nc(-c3ccccc3)cc2C(=O)N1c1ccc(F)cc1 (stereo not given),4.53%,0%,3.37%,9.49%,-2.34%
CCC(C)NC(=O)c1ccc2c(=O)n(C)c3nn(Cc4ccc(C)cc4)c(=O)n3c2c1 (stereo not given),1.87%,1.53%,4.07%,-1.09%,3.97%
CCN1CCCC2(CCN(C(=O)CCc3n[nH]c(C)c3C)C2)C1=O (stereo not given),-2.68%,-6.45%,-0.955%,-4.38%,-3.45%
Cc1ccc(NC(=O)Cn2c(=O)oc3cc(S(=O)(=O)N4CCCCC4)ccc32)cc1C,-2.33%,0.945%,4.79%,-4.55%,-7.79%
C=Cc1ccc(Cn2nc3n(C(C)C)c(=O)c4ccc(C(=O)NC(C)CC)cc4n3c2=O)cc1 (stereo not given),-4.03%,-14.4%,0.422%,-6.21%,-8.64%
Cc1cc2c(cc3n2CC(C)(C(=O)NC2CCCCCC2)N(C2CCCCC2)C3=O)o1 (stereo not given),3.65%,-7.21%,8.15%,0.677%,-0.05%
CN1C[C@H](C(=O)Nc2ccncn2)C[C@H]1c1cccc(C(F)(F)F)c1,-5.88%,-4.56%,-5.58%,-15.2%,-25.4%
C=C(C(=O)O)[C@H]1C[C@]2(C)[C@@H](O)CC[C@]23O[C@H]1C[C@@H]3C,-0.313%,4.01%,8.93%,-8.7%,4.19%
